Test results published in the supplement of paper PMC8728848.
The other results are listed elsewhere or left out.

What was measured:
Assay in all cases: glycan array binding signal (z-score within array); higher = stronger binding
Details in all cases: glycan notation: IUPAC condensed, linker removed
[1] = target: Neu5Ac(a2-6)Gal(b1-4)GlcNAc(b1-3)Gal(b1-4)GlcNAc(b1-3)GalNAc
Summary of the method: (§1)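 Negative Z-scores can be read as non-binding. The Z-score is calculated within each array and then averaged across arrays of one protein sequence at different concentrations or buffers and across linkers. Arrays, 3228 in all, were curated from the Consortium for Functional Glycomics database and kept only where the protein sequence was available.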

[2] = target: Neu5Ac(a2-6)Gal(b1-4)GlcNAc(b1-3)Gal(b1-4)GlcNAc(b1-3)[Neu5Ac(a2-6)Gal(b1-4)GlcNAc(b1-3)Gal(b1-4)GlcNAc(b1-6)]GalNAc
Summary of the method: as §1

[3] = target: Neu5Ac(a2-6)Gal(b1-4)GlcNAc(b1-3)Gal(b1-4)GlcNAc(b1-6)[Gal(b1-3)]GalNAc
Summary of the method: as §1

[4] = target: Neu5Ac(a2-6)Gal(b1-4)GlcNAc(b1-3)Gal(b1-4)[Fuc(a1-3)]GlcNAc(b1-3)Gal(b1-4)[Fuc(a1-3)]GlcNAc
Summary of the method: as §1

[5] = target: Neu5Ac(a2-6)Gal(b1-4)GlcNAc(b1-3)GalNAc
Summary of the method: as §1

[6] = target: Neu5Ac(a2-6)Gal(b1-4)GlcNAc(b1-3)[Neu5Ac(a2-6)Gal(b1-4)GlcNAc(b1-6)]GalNAc
Summary of the method: as §1

[7] = target: Neu5Ac(a2-6)Gal(b1-4)GlcNAc(b1-6)GalNAc
Summary of the method: as §1

[8] = target: Neu5Ac(a2-6)Gal(b1-4)GlcNAc(b1-6)[Gal(b1-3)GlcNAc(b1-3)]Gal(b1-4)Glc
Summary of the method: as §1

[9] = target: Neu5Ac(a2-6)Gal(b1-4)GlcNAc(b1-6)[Gal(b1-3)]GalNAc
Summary of the method: as §1

[10] = target: Neu5Ac(a2-6)Gal(b1-4)GlcNAc6S
Summary of the method: as §1

Neu5Ac(a2-6)GalNAc = target: Neu5Ac(a2-6)GalNAc
Summary of the method: as §1

[11] = target: Neu5Ac(a2-6)GalNAc(b1-4)GlcNAc
Summary of the method: as §1

[12] = target: Neu5Ac(a2-6)GalNAc(b1-4)GlcNAc6S
Summary of the method: as §1

[13] = target: Neu5Ac(a2-6)GlcNAc(b1-4)GlcNAc
Summary of the method: as §1

[14] = target: Neu5Ac(a2-6)GlcNAc(b1-4)GlcNAc(b1-4)GlcNAc
Summary of the method: as §1

Neu5Ac(a2-8)Neu5Ac = target: Neu5Ac(a2-8)Neu5Ac
Summary of the method: as §1

[15] = target: Neu5Ac(a2-8)Neu5Ac(a2-3)Gal(b1-3)GalNAc(b1-4)[Neu5Ac(a2-3)]Gal(b1-4)Glc
Summary of the method: as §1

[16] = target: Neu5Ac(a2-8)Neu5Ac(a2-3)Gal(b1-3)GalNAc(b1-4)[Neu5Ac(a2-8)Neu5Ac(a2-3)]Gal(b1-4)Glc
Summary of the method: as §1

[17] = target: Neu5Ac(a2-8)Neu5Ac(a2-3)Gal(b1-4)Glc
Summary of the method: as §1

[18] = target: Neu5Ac(a2-8)Neu5Ac(a2-3)Gal(b1-4)GlcNAc
Summary of the method: as §1

[19] = target: Neu5Ac(a2-8)Neu5Ac(a2-3)[Gal(b1-3)GalNAc(b1-4)]Gal(b1-4)Glc
Summary of the method: as §1

[20] = target: Neu5Ac(a2-8)Neu5Ac(a2-3)[GalNAc(b1-4)]Gal(b1-4)Glc
Summary of the method: as §1

[21] = target: Neu5Ac(a2-8)Neu5Ac(a2-8)Neu5Ac
Summary of the method: as §1

[22] = target: Neu5Ac(a2-8)Neu5Ac(a2-8)Neu5Ac(a2-3)Gal(b1-4)Glc
Summary of the method: as §1

[23] = target: Neu5Ac(a2-8)Neu5Ac(a2-8)Neu5Ac(a2-3)[Gal(b1-3)GalNAc(b1-4)]Gal(b1-4)Glc
Summary of the method: as §1

[24] = target: Neu5Ac(a2-8)Neu5Ac(a2-8)Neu5Ac(a2-3)[GalNAc(b1-4)]Gal(b1-4)Glc
Summary of the method: as §1

[25] = target: Neu5Ac(a2-8)Neu5Ac(a2-8)Neu5Ac(a2-8)Neu5Ac(a2-3)[GalNAc(b1-4)]Gal(b1-4)Glc
Summary of the method: as §1

[26] = target: Neu5Ac(a2-8)Neu5Gc(a2-3)Gal(b1-4)GlcNAc
Summary of the method: as §1

[27] = target: Neu5Ac(b2-6)Gal(b1-4)GlcNAc
Summary of the method: as §1

Neu5Ac(b2-6)GalNAc = target: Neu5Ac(b2-6)GalNAc
Summary of the method: as §1

[28] = target: Neu5Ac9Ac(a2-3)Gal(b1-3)GlcNAc
Summary of the method: as §1

[29] = target: Neu5Ac9Ac(a2-3)Gal(b1-4)GlcNAc
Summary of the method: as §1

[30] = target: Neu5Ac9Ac(a2-6)Gal(b1-4)GlcNAc
Summary of the method: as §1

[31] = target: Neu5Gc(a2-3)Gal(b1-3)GlcNAc
Summary of the method: as §1

[32] = target: Neu5Gc(a2-3)Gal(b1-3)[Fuc(a1-4)]GlcNAc
Summary of the method: as §1

Neu5Gc(a2-3)Gal(b1-4)Glc = target: Neu5Gc(a2-3)Gal(b1-4)Glc
Summary of the method: as §1

[33] = target: Neu5Gc(a2-3)Gal(b1-4)GlcNAc
Summary of the method: as §1

[34] = target: Neu5Gc(a2-3)Gal(b1-4)GlcNAc(b1-3)Gal(b1-4)GlcNAc(b1-2)Man(a1-3)[Neu5Gc(a2-3)Gal(b1-4)GlcNAc(b1-3)Gal(b1-4)GlcNAc(b1-2)Man(a1-6)]Man(b1-4)GlcNAc(b1-4)GlcNAc
Summary of the method: as §1

[35] = target: Neu5Gc(a2-3)Gal(b1-4)[Fuc(a1-3)]GlcNAc
Summary of the method: as §1

[36] = target: Neu5Gc(a2-6)Gal(b1-4)GlcNAc
Summary of the method: as §1

Neu5Gc(a2-6)GalNAc = target: Neu5Gc(a2-6)GalNAc
Summary of the method: as §1

[37] = target: Neu5Gc(a2-8)Neu5Ac(a2-3)Gal(b1-4)GlcNAc
Summary of the method: as §1

[38] = target: Neu5Gc(a2-8)Neu5Gc(a2-3)Gal(b1-4)GlcNAc
Summary of the method: as §1

[39] = target: Neu5Gc(a2-8)Neu5Gc(a2-3)Gal(b1-4)GlcNAc(b1-3)Gal(b1-4)GlcNAc
Summary of the method: as §1

[40] = target: Neu5Gc(a2-8)Neu5Gc(a2-6)Gal(b1-4)GlcNAc
Summary of the method: as §1

[41] = target: Neu5Gc(b2-6)Gal(b1-4)GlcNAc
Summary of the method: as §1

B1: PX9961H-bth-557-24-557 (Bacteroides thetaiotaomicron) (protein)
chain: EETRTEVEKKNYMNNAEEAKDVLLGVYRTNTLDAMYGYYLSILFNLGTDISQVEGSGNENFRIIPTNSFPTTQSEVQQTWAALYTGIYRANDFLERISNKIGSYTTTDKKLATLYIAEARALRGMFYFELVRRFGNVVLMTSTQMSNQNPATYVQSAPEKVYEYIEDDLLYACDILPYATDDQYRESNDYRFSKGAALGLLTKVYATWAGYPVKDESKWEAAAKTARILVESGKHGLLKDYEQLWKNTCNGTWDPTESLIEISFYSPTVSGNSDPVGRIGKWNGVKTTAIAGVRGSCAANVKVVHTFVLDWREDVSDIRRDLSIANYQYTDTKKSLWVAGASDTDESAAEKDADPTKAQKNKQNYTPAKWDIQKYVTTNSFINNDKSNVNWYFLRYADVLLLYAEALNEWKHGPDAEAYNAINAVRRRGYGNPSNTSACDLPQGLDETSFREAVRKERSYELSFEGHRRQDLIRWGIYYKTVQATAKELGYWWEGTGSPNYSVATYTEEGKHELFPIPQRDMDLCIQFNQNPKW
[1]
  glycan array binding signal (z-score): -0.503
[2]
  glycan array binding signal (z-score): -0.661
[3]
  glycan array binding signal (z-score): -0.46
[4]
  glycan array binding signal (z-score): -0.443
[5]
  glycan array binding signal (z-score): -0.41
[6]
  glycan array binding signal (z-score): -0.565
[7]
  glycan array binding signal (z-score): -0.515
[8]
  glycan array binding signal (z-score): -0.544
[9]
  glycan array binding signal (z-score): 0.001
[10]
  glycan array binding signal (z-score): -0.773
Neu5Ac(a2-6)GalNAc
  glycan array binding signal (z-score): 0.031
[11]
  glycan array binding signal (z-score): -0.394
[12]
  glycan array binding signal (z-score): -0.466
[13]
  glycan array binding signal (z-score): -0.469
[14]
  glycan array binding signal (z-score): 0.201
Neu5Ac(a2-8)Neu5Ac
  glycan array binding signal (z-score): -0.128
[15]
  glycan array binding signal (z-score): -0.541
[16]
  glycan array binding signal (z-score): 0.552
[17]
  glycan array binding signal (z-score): -0.423
[18]
  glycan array binding signal (z-score): -0.532
[19]
  glycan array binding signal (z-score): -0.464
[20]
  glycan array binding signal (z-score): 1.01
[21]
  glycan array binding signal (z-score): -0.164
[22]
  glycan array binding signal (z-score): -0.336
[23]
  glycan array binding signal (z-score): 0.142
[24]
  glycan array binding signal (z-score): -0.22
[25]
  glycan array binding signal (z-score): -0.267
[26]
  glycan array binding signal (z-score): 7.98
[27]
  glycan array binding signal (z-score): 0.015
Neu5Ac(b2-6)GalNAc
  glycan array binding signal (z-score): -0.434
[28]
  glycan array binding signal (z-score): -0.391
[29]
  glycan array binding signal (z-score): -0.592
[30]
  glycan array binding signal (z-score): -0.047
[31]
  glycan array binding signal (z-score): -0.511
[32]
  glycan array binding signal (z-score): -0.41
Neu5Gc(a2-3)Gal(b1-4)Glc
  glycan array binding signal (z-score): -0.062
[33]
  glycan array binding signal (z-score): -0.227
[34]
  glycan array binding signal (z-score): -0.077
[35]
  glycan array binding signal (z-score): -0.313
[36]
  glycan array binding signal (z-score): -0.44
Neu5Gc(a2-6)GalNAc
  glycan array binding signal (z-score): 0.153
[37]
  glycan array binding signal (z-score): -0.334
[38]
  glycan array binding signal (z-score): -0.494
[39]
  glycan array binding signal (z-score): -0.519
[40]
  glycan array binding signal (z-score): -0.327
[41]
  glycan array binding signal (z-score): -0.202
